# Assay results as given in paper PMC12820563, “FoxP3 forms a head-to-head dimer in vivo and stabilizes its multimerization on adjacent microsatellites”.
# The list shows a part of the results.
# Molecular target: T1, MBP-FoxP1dN (Mus musculus, UniProt P58462 326-579)
# T1 sequence: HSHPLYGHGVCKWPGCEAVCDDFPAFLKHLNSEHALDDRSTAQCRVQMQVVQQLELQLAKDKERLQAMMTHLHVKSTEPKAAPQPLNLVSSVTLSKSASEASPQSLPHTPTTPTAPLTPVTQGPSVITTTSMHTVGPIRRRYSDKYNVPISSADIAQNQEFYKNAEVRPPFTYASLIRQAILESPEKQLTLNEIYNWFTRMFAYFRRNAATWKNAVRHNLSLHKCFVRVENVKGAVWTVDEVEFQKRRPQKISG
# Assay: PD-seq (MBP pull-down with sequencing); 20 mM Tris-HCl pH 7.5, 100 mM NaCl, 1.5 mM MgCl2, 0.4 uM protein, 0.1 uM dsDNA library, 30 min, room temperature, amylose pull-down; high values mean tight binding
# Settings: protein: recombinant; tags: His6-MBP; chain copies: 2; dsDNA, one strand shown
# Method in brief: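 A degenerate double-stranded DNA library, filled in with Klenow, was added at 0.1 µM to 0.4 µM His6-MBP-tagged mouse FoxP3 or FoxP1 fragment lacking the N-terminus, expressed in E. coli. Incubation lasted 30 min at room temperature in Tris pH 7.5 buffer with NaCl and MgCl2, after which complexes were collected on amylose resin, washed three times, digested with proteinase K to free the DNA, barcoded by PCR and sequenced by Illumina. Binding is the pooled-replicate reads-per-million enrichment of pull-down over input.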
row,Sequence,binding signal
1,GATGATTGTTCTCCCAGCTGATGAATTGAGATTCTCGAGTAAACAAATTTTCCTAATCTTTCTGTTCAAGCGCCATCTAC,0.714 RPM ratio (pull-down/input)
2,GATGATTGTTCTCCCAGCTGATGAATTGTCTGCGTCGAGTAAACAAATTTTCCTAATCTTTCTGTTCAAGCGCCATCTAC,1.06 RPM ratio (pull-down/input)
3,GATGATTGTTCTCCCAGCTGATGAATTCGAGAGGTCGAGTAAACAAATTTTCCTAATCTTTCTGTTCAAGCGCCATCTAC,0.698 RPM ratio (pull-down/input)
4,GATGATTGTTCTCCCAGCTGATGAATTGTGTCACTCGAGTAAACAAATTTTCCTAATCTTTCTGTTCAAGCGCCATCTAC,1.18 RPM ratio (pull-down/input)
5,GATGATTGTTCTCCCAGCTGATGAATTAATGCGGTCGAGTAAACAAATTTTCCTAATCTTTCTGTTCAAGCGCCATCTAC,1.2 RPM ratio (pull-down/input)
6,GATGATTGTTCTCCCAGCTGATGAATTGCTTGTGTCGAGTAAACAAATTTTCCTAATCTTTCTGTTCAAGCGCCATCTAC,1.33 RPM ratio (pull-down/input)
7,GATGATTGTTCTCCCAGCTGATGAATTCAGCACCTCGAGTAAACAAATTTTCCTAATCTTTCTGTTCAAGCGCCATCTAC,0.855 RPM ratio (pull-down/input)
8,GATGATTGTTCTCCCAGCTGATGAATTCTTACTTTCGAGTAAACAAATTTTCCTAATCTTTCTGTTCAAGCGCCATCTAC,0.935 RPM ratio (pull-down/input)
9,GATGATTGTTCTCCCAGCTGATGAATTAAGAGATTCGAGTAAACAAATTTTCCTAATCTTTCTGTTCAAGCGCCATCTAC,0.921 RPM ratio (pull-down/input)
10,GATGATTGTTCTCCCAGCTGATGAATTCATCCCATCGAGTAAACAAATTTTCCTAATCTTTCTGTTCAAGCGCCATCTAC,0.935 RPM ratio (pull-down/input)
11,GATGATTGTTCTCCCAGCTGATGAATTCATCATATCGAGTAAACAAATTTTCCTAATCTTTCTGTTCAAGCGCCATCTAC,1.08 RPM ratio (pull-down/input)
12,GATGATTGTTCTCCCAGCTGATGAATTGTGTGAATCGAGTAAACAAATTTTCCTAATCTTTCTGTTCAAGCGCCATCTAC,1.08 RPM ratio (pull-down/input)
13,GATGATTGTTCTCCCAGCTGATGAATTACCATCCTCGAGTAAACAAATTTTCCTAATCTTTCTGTTCAAGCGCCATCTAC,0.917 RPM ratio (pull-down/input)
14,GATGATTGTTCTCCCAGCTGATGAATTCAAATGGTCGAGTAAACAAATTTTCCTAATCTTTCTGTTCAAGCGCCATCTAC,0.889 RPM ratio (pull-down/input)
15,GATGATTGTTCTCCCAGCTGATGAATTGCTAAATTCGAGTAAACAAATTTTCCTAATCTTTCTGTTCAAGCGCCATCTAC,1.33 RPM ratio (pull-down/input)
16,GATGATTGTTCTCCCAGCTGATGAATTATGCCTGTCGAGTAAACAAATTTTCCTAATCTTTCTGTTCAAGCGCCATCTAC,0.97 RPM ratio (pull-down/input)
17,GATGATTGTTCTCCCAGCTGATGAATTTTAGTACTCGAGTAAACAAATTTTCCTAATCTTTCTGTTCAAGCGCCATCTAC,0.868 RPM ratio (pull-down/input)
18,GATGATTGTTCTCCCAGCTGATGAATTCAAGGCATCGAGTAAACAAATTTTCCTAATCTTTCTGTTCAAGCGCCATCTAC,1.06 RPM ratio (pull-down/input)
19,GATGATTGTTCTCCCAGCTGATGAATTAATGGCGTCGAGTAAACAAATTTTCCTAATCTTTCTGTTCAAGCGCCATCTAC,1.04 RPM ratio (pull-down/input)
20,GATGATTGTTCTCCCAGCTGATGAATTCGGCGTGTCGAGTAAACAAATTTTCCTAATCTTTCTGTTCAAGCGCCATCTAC,0.891 RPM ratio (pull-down/input)
21,GATGATTGTTCTCCCAGCTGATGAATTTTCAAAGTCGAGTAAACAAATTTTCCTAATCTTTCTGTTCAAGCGCCATCTAC,0.935 RPM ratio (pull-down/input)

row,Sequence,binding signal
1,GATGATTGTTCTCCCAGCTGATGAATTGAGAGAGTCGAGTAAACAAATTTTCCTAATCTTTCTGTTCAAGCGCCATCTAC,0.8 RPM ratio (pull-down/input)
2,GATGATTGTTCTCCCAGCTGATGAATTTACCACTTCGAGTAAACAAATTTTCCTAATCTTTCTGTTCAAGCGCCATCTAC,1.41 RPM ratio (pull-down/input)
3,GATGATTGTTCTCCCAGCTGATGAATTCGGCGTCTCGAGTAAACAAATTTTCCTAATCTTTCTGTTCAAGCGCCATCTAC,0.796 RPM ratio (pull-down/input)
4,GATGATTGTTCTCCCAGCTGATGAATTGTCACGATCGAGTAAACAAATTTTCCTAATCTTTCTGTTCAAGCGCCATCTAC,1.07 RPM ratio (pull-down/input)
5,GATGATTGTTCTCCCAGCTGATGAATTAGACAATTCGAGTAAACAAATTTTCCTAATCTTTCTGTTCAAGCGCCATCTAC,1.12 RPM ratio (pull-down/input)
6,GATGATTGTTCTCCCAGCTGATGAATTCCACAGATCGAGTAAACAAATTTTCCTAATCTTTCTGTTCAAGCGCCATCTAC,0.826 RPM ratio (pull-down/input)
7,GATGATTGTTCTCCCAGCTGATGAATTATTATCATCGAGTAAACAAATTTTCCTAATCTTTCTGTTCAAGCGCCATCTAC,1.38 RPM ratio (pull-down/input)
8,GATGATTGTTCTCCCAGCTGATGAATTATGCCCATCGAGTAAACAAATTTTCCTAATCTTTCTGTTCAAGCGCCATCTAC,0.962 RPM ratio (pull-down/input)
9,GATGATTGTTCTCCCAGCTGATGAATTACTTGCGTCGAGTAAACAAATTTTCCTAATCTTTCTGTTCAAGCGCCATCTAC,1.15 RPM ratio (pull-down/input)
10,GATGATTGTTCTCCCAGCTGATGAATTGACATAATCGAGTAAACAAATTTTCCTAATCTTTCTGTTCAAGCGCCATCTAC,1.63 RPM ratio (pull-down/input)
11,GATGATTGTTCTCCCAGCTGATGAATTAGCGCGTTCGAGTAAACAAATTTTCCTAATCTTTCTGTTCAAGCGCCATCTAC,0.932 RPM ratio (pull-down/input)
12,GATGATTGTTCTCCCAGCTGATGAATTAAAACACTCGAGTAAACAAATTTTCCTAATCTTTCTGTTCAAGCGCCATCTAC,1.13 RPM ratio (pull-down/input)
13,GATGATTGTTCTCCCAGCTGATGAATTAGGAGACTCGAGTAAACAAATTTTCCTAATCTTTCTGTTCAAGCGCCATCTAC,0.806 RPM ratio (pull-down/input)
14,GATGATTGTTCTCCCAGCTGATGAATTCTCCGCGTCGAGTAAACAAATTTTCCTAATCTTTCTGTTCAAGCGCCATCTAC,0.971 RPM ratio (pull-down/input)
15,GATGATTGTTCTCCCAGCTGATGAATTCATCGCCTCGAGTAAACAAATTTTCCTAATCTTTCTGTTCAAGCGCCATCTAC,0.873 RPM ratio (pull-down/input)
16,GATGATTGTTCTCCCAGCTGATGAATTATTTCATTCGAGTAAACAAATTTTCCTAATCTTTCTGTTCAAGCGCCATCTAC,1.12 RPM ratio (pull-down/input)
17,GATGATTGTTCTCCCAGCTGATGAATTTTCGTACTCGAGTAAACAAATTTTCCTAATCTTTCTGTTCAAGCGCCATCTAC,0.994 RPM ratio (pull-down/input)
18,GATGATTGTTCTCCCAGCTGATGAATTGTCCTAATCGAGTAAACAAATTTTCCTAATCTTTCTGTTCAAGCGCCATCTAC,1.27 RPM ratio (pull-down/input)
19,GATGATTGTTCTCCCAGCTGATGAATTCTAAATATCGAGTAAACAAATTTTCCTAATCTTTCTGTTCAAGCGCCATCTAC,1.76 RPM ratio (pull-down/input)
20,GATGATTGTTCTCCCAGCTGATGAATTTGGTTCGTCGAGTAAACAAATTTTCCTAATCTTTCTGTTCAAGCGCCATCTAC,0.948 RPM ratio (pull-down/input)
21,GATGATTGTTCTCCCAGCTGATGAATTTTGAACCTCGAGTAAACAAATTTTCCTAATCTTTCTGTTCAAGCGCCATCTAC,0.855 RPM ratio (pull-down/input)

row,Sequence,binding signal
1,GATGATTGTTCTCCCAGCTGATGAATTAAAATGATCGAGTAAACAAATTTTCCTAATCTTTCTGTTCAAGCGCCATCTAC,0.937 RPM ratio (pull-down/input)
2,GATGATTGTTCTCCCAGCTGATGAATTTTTTCCTTCGAGTAAACAAATTTTCCTAATCTTTCTGTTCAAGCGCCATCTAC,0.862 RPM ratio (pull-down/input)
3,GATGATTGTTCTCCCAGCTGATGAATTACTATGCTCGAGTAAACAAATTTTCCTAATCTTTCTGTTCAAGCGCCATCTAC,1.03 RPM ratio (pull-down/input)
4,GATGATTGTTCTCCCAGCTGATGAATTGTAGCGTTCGAGTAAACAAATTTTCCTAATCTTTCTGTTCAAGCGCCATCTAC,1.09 RPM ratio (pull-down/input)
5,GATGATTGTTCTCCCAGCTGATGAATTCGCATAGTCGAGTAAACAAATTTTCCTAATCTTTCTGTTCAAGCGCCATCTAC,0.862 RPM ratio (pull-down/input)
6,GATGATTGTTCTCCCAGCTGATGAATTTGTATTCTCGAGTAAACAAATTTTCCTAATCTTTCTGTTCAAGCGCCATCTAC,1.44 RPM ratio (pull-down/input)
7,GATGATTGTTCTCCCAGCTGATGAATTTGTCGACTCGAGTAAACAAATTTTCCTAATCTTTCTGTTCAAGCGCCATCTAC,0.975 RPM ratio (pull-down/input)
8,GATGATTGTTCTCCCAGCTGATGAATTGAGTAGGTCGAGTAAACAAATTTTCCTAATCTTTCTGTTCAAGCGCCATCTAC,0.79 RPM ratio (pull-down/input)
9,GATGATTGTTCTCCCAGCTGATGAATTTCCGACGTCGAGTAAACAAATTTTCCTAATCTTTCTGTTCAAGCGCCATCTAC,0.803 RPM ratio (pull-down/input)
10,GATGATTGTTCTCCCAGCTGATGAATTATCTAGGTCGAGTAAACAAATTTTCCTAATCTTTCTGTTCAAGCGCCATCTAC,0.824 RPM ratio (pull-down/input)
11,GATGATTGTTCTCCCAGCTGATGAATTTGGGATATCGAGTAAACAAATTTTCCTAATCTTTCTGTTCAAGCGCCATCTAC,0.916 RPM ratio (pull-down/input)
12,GATGATTGTTCTCCCAGCTGATGAATTAATACGTTCGAGTAAACAAATTTTCCTAATCTTTCTGTTCAAGCGCCATCTAC,1.15 RPM ratio (pull-down/input)
13,GATGATTGTTCTCCCAGCTGATGAATTGTTTCTGTCGAGTAAACAAATTTTCCTAATCTTTCTGTTCAAGCGCCATCTAC,1.25 RPM ratio (pull-down/input)
14,GATGATTGTTCTCCCAGCTGATGAATTGCAAGCGTCGAGTAAACAAATTTTCCTAATCTTTCTGTTCAAGCGCCATCTAC,1.11 RPM ratio (pull-down/input)
15,GATGATTGTTCTCCCAGCTGATGAATTGCACCCGTCGAGTAAACAAATTTTCCTAATCTTTCTGTTCAAGCGCCATCTAC,1.1 RPM ratio (pull-down/input)
16,GATGATTGTTCTCCCAGCTGATGAATTGTCAACCTCGAGTAAACAAATTTTCCTAATCTTTCTGTTCAAGCGCCATCTAC,1.24 RPM ratio (pull-down/input)
17,GATGATTGTTCTCCCAGCTGATGAATTCAGGCAATCGAGTAAACAAATTTTCCTAATCTTTCTGTTCAAGCGCCATCTAC,1.08 RPM ratio (pull-down/input)
18,GATGATTGTTCTCCCAGCTGATGAATTCCTCCATTCGAGTAAACAAATTTTCCTAATCTTTCTGTTCAAGCGCCATCTAC,0.893 RPM ratio (pull-down/input)
19,GATGATTGTTCTCCCAGCTGATGAATTGGACGCTTCGAGTAAACAAATTTTCCTAATCTTTCTGTTCAAGCGCCATCTAC,0.912 RPM ratio (pull-down/input)
20,GATGATTGTTCTCCCAGCTGATGAATTAGAGCATTCGAGTAAACAAATTTTCCTAATCTTTCTGTTCAAGCGCCATCTAC,1.14 RPM ratio (pull-down/input)
21,GATGATTGTTCTCCCAGCTGATGAATTGCAATTGTCGAGTAAACAAATTTTCCTAATCTTTCTGTTCAAGCGCCATCTAC,1.56 RPM ratio (pull-down/input)
